# Reference: PMC10668032
# Some of the results follow. At the low end of the ranking, values are background and their order means little.
# Target: SIX1 homeodomain (reference allele) (UniProt Q15475)
# Assay: universal protein binding microarray
# Conditions: Universal all-10-mer PBM (8x60K, AMADID 030236), 300 nM GST-tagged protein, Alexa Fluor 488 anti-GST; buffer, salt, pH and temperature not stated; high values mean tight binding; most listed sequences are background and not binding sites; double strand, one strand shown
row,Sequence,binding signal
1,CTGACGCA,-0.254 E-score
2,GTGAGACA,0.158 E-score
3,GGCTTAGA,-0.149 E-score
4,TCCAGGAA,0.011 E-score
5,GCTATTTA,0.0705 E-score
6,ACTAGGGC,-0.192 E-score
7,GACGGGCC,-0.0352 E-score
8,CGGGAAAA,-0.218 E-score
9,CATATCAA,0.452 E-score
10,AATTTCAC,-0.295 E-score
11,CGTGGTCC,0.0814 E-score
12,GATACGCA,0.421 E-score
13,ACGCAGCC,-0.136 E-score
14,AACGAGGC,-0.111 E-score
15,GCTTGTAC,-0.101 E-score
16,ATCGGCTG,0.167 E-score
17,CAGTAGCG,-0.0242 E-score
18,ATCGTGGA,0.116 E-score
19,GAGGCATC,0.00106 E-score
20,ATGCGAGG,-0.0248 E-score
21,GGATGGAA,0.0567 E-score
22,AATCACAG,-0.0314 E-score
23,GGATACCA,0.426 E-score
24,AAACTCGT,-0.263 E-score
25,AAGCAGCC,-0.224 E-score

row,Sequence,binding signal
1,CGGTACTC,0.176 E-score
2,TTAGTGAA,-0.0467 E-score
3,CAAGCGCG,-0.145 E-score
4,GCGACTTA,-0.274 E-score
5,ATAGGGAT,0.395 E-score
6,CAGCCCGA,-0.118 E-score
7,ACGGGATC,0.342 E-score
8,GCTCTTTA,-0.174 E-score
9,ACGACAAC,-0.148 E-score
10,AGACGTGC,-0.075 E-score
11,TGATGGCA,-0.255 E-score
12,CTGCCAGA,0.0078 E-score
13,CTGTGGGA,-0.0232 E-score
14,ATTTCACG,-0.103 E-score
15,GCCCTACA,-0.126 E-score
16,AGGTCTTG,-0.198 E-score
17,CACATGGG,-0.111 E-score
18,AAATGCTA,0.114 E-score
19,AAAAGCGA,-0.0436 E-score
20,TCGAAAGA,-0.0936 E-score
21,ACCCAGAC,0.117 E-score
22,CTGAGCCA,-0.00654 E-score
23,CCTCTGGA,-0.00647 E-score
24,AAACATGT,-0.276 E-score
25,ACGAGTCT,-0.0531 E-score

row,Sequence,binding signal
1,CAGAACGA,0.0772 E-score
2,GTGCCGCA,-0.174 E-score
3,AGCAAGCA,-0.304 E-score
4,ATTACTGC,0.0655 E-score
5,GAACCTAC,-0.192 E-score
6,AAGCTTCC,-0.196 E-score
7,AGCAGGCA,-0.122 E-score
8,AGGACTGG,-0.12 E-score
9,AGCTACAC,0.0973 E-score
10,ACTCAACA,-0.133 E-score
11,ACCAATAT,0.199 E-score
12,CCTACTAC,0.0198 E-score
13,ATTATGCA,0.0315 E-score
14,CATCGGGC,0.0787 E-score
15,CGGAGTTC,-0.0974 E-score
16,AGAGTCTA,-0.192 E-score
17,ACCTTGAC,-0.0392 E-score
18,ACCGGGTG,0.109 E-score
19,AGAGCATC,0.0182 E-score
20,ACAACGCC,-0.225 E-score
21,AAAGGCGG,-0.16 E-score
22,AGCTGTCC,-0.383 E-score
23,GCCTCCAC,-0.379 E-score
24,GAGAAACC,-0.0361 E-score
25,ACGGAGAA,-0.0771 E-score

row,Sequence,binding signal
1,CCCCTCAC,0.00562 E-score
2,ATTTCTTC,-0.171 E-score
3,GCAGTATA,0.205 E-score
4,CAGACAGG,-0.0912 E-score
5,CATGGAGC,-0.283 E-score
6,AGCCATGG,0.0179 E-score
7,CTCACCCC,0.0156 E-score
8,ATGAGTCA,0.00105 E-score
9,ACGGTCCT,-0.266 E-score
10,AGCACAAT,-0.0533 E-score
11,ACAGAGGG,0.0677 E-score
12,CACGGTAG,0.0356 E-score
13,ATCCCACA,0.23 E-score
14,CAGACCCG,-0.0239 E-score
15,TCGGACGA,-0.0313 E-score
16,GATGGCCA,-0.297 E-score
17,AGGGACTG,-0.204 E-score
18,AGCGACCG,0.00574 E-score
19,GAACCCCC,-0.0838 E-score
20,ACTCGGCG,0.0111 E-score
21,GTCGCCCA,-0.227 E-score
22,CAGTGTCC,-0.0519 E-score
23,ATAGGTTG,-0.105 E-score
24,TCGGTAAA,-0.0484 E-score
25,CCACGGTA,0.0502 E-score

row,Sequence,binding signal
1,CAACCTAC,-0.0687 E-score
2,GCTGCGGA,3.5e-05 E-score
3,AGGACGCG,-0.0249 E-score
4,TACTTACA,-0.0544 E-score
5,AGTTTGAT,0.0308 E-score
6,GCAAGATA,0.17 E-score
7,TCTGAAAA,-0.024 E-score
8,GCCGGCGC,-0.195 E-score
9,CACAGTGA,-0.0378 E-score
10,AGAACGCG,-0.185 E-score
11,CAGCTGAC,-0.194 E-score
12,TATTCGGA,0.0335 E-score
13,GCCTGGTA,0.0811 E-score
14,AAACGTCC,-0.334 E-score
15,ATGGCGGA,0.104 E-score
16,AATGGTGT,0.287 E-score
17,AGATCTAC,0.183 E-score
18,ACTTGGTG,0.0751 E-score
19,CTCGGTCA,-0.0232 E-score
20,GGGCCCCC,-0.31 E-score
21,TACCCGCA,0.161 E-score
22,AGGGCGCA,-0.29 E-score
23,ACCGTTAC,-0.0724 E-score
24,AAACGCAT,-0.122 E-score
25,AAACGGGG,-0.0435 E-score

row,Sequence,binding signal
1,AAACTGTT,-0.232 E-score
2,GCGTAGAC,-0.0743 E-score
3,CAGGAATA,-0.0839 E-score
4,AACGTTAC,-0.19 E-score
5,ACTTTGAC,-0.201 E-score
6,CTGATTCC,-0.1 E-score
7,ACCGGTCA,0.069 E-score
8,GAATCGCC,-0.0722 E-score
9,CCGATTCA,-0.0745 E-score
10,CTCCTAAA,-0.0767 E-score
11,CCACATCC,0.142 E-score
12,GATGCTGA,-0.0596 E-score
13,ACCTTTCC,-0.114 E-score
14,GCTGGCGA,-0.0132 E-score
15,ATATAGCG,0.164 E-score
16,ATATTATA,0.333 E-score
17,ACGAGACA,0.0509 E-score
18,TGAGAGCA,0.00541 E-score
19,ACTACTGG,-0.105 E-score
20,CACTGGAA,0.0659 E-score
21,CCACTATA,0.143 E-score
22,CGGGGGTA,0.301 E-score
23,AGCATCGC,-0.2 E-score
24,AGGAGTTA,-0.0945 E-score
25,CAGGTAGC,0.0424 E-score

row,Sequence,binding signal
1,GAAACGAA,-0.164 E-score
2,ACGCCGCC,-0.153 E-score
3,GAGGAGCC,0.0159 E-score
4,CCTAATCC,0.121 E-score
5,GACAAGTC,-0.344 E-score
6,GTCGACTA,0.0583 E-score
7,ACGTCAGA,-0.114 E-score
8,ATTGGCTG,-0.204 E-score
9,GATGTCAA,-0.111 E-score
10,ATAGTCCC,0.0289 E-score
11,CACAACGG,-0.0757 E-score
12,GCCTATCC,0.267 E-score
13,GAAGTTAA,-0.162 E-score
14,ACTCAAAG,-0.191 E-score
15,CAAACGTA,-0.00932 E-score
16,AGCCTCAT,-0.0751 E-score
17,CAATCAAA,-0.199 E-score
18,GTCAAGTA,-0.134 E-score
19,GCAATCGC,-0.145 E-score
20,ACTCTATA,0.117 E-score
21,ACTCAATG,0.109 E-score
22,AACTCTAA,-0.00439 E-score
23,CGTTACAC,-0.0126 E-score
24,CGCGACCA,-0.0994 E-score
25,GAGTTGCA,0.0195 E-score

row,Sequence,binding signal
1,ATAACCGC,0.138 E-score
2,TCATATGA,0.303 E-score
3,CGATTACG,0.00347 E-score
4,GAAACTCA,-0.261 E-score
5,AAAAATGG,-0.194 E-score
6,ACAATACA,0.125 E-score
7,GTCTTAAA,-0.0745 E-score
8,CGGAGCGC,-0.216 E-score
9,AGGGCCGG,-0.0303 E-score
10,ATTTCTCG,0.00262 E-score
11,CTCGTATC,0.367 E-score
12,GATCTAAA,0.0697 E-score
13,CCCTCTTC,-0.0381 E-score
14,AAAGTCTC,-0.231 E-score
15,GGAGGACC,-0.205 E-score
16,CAACGGTC,-0.224 E-score
17,TATGTACA,0.139 E-score
18,AAGACAAT,-0.307 E-score
19,ACTTGTTA,-0.0516 E-score
20,CCACGCTC,-0.138 E-score
21,AGGAATGA,0.141 E-score
22,AGGAAATA,-0.0922 E-score
23,AGCCCACT,-0.0545 E-score
24,GACAGTAC,-0.073 E-score
25,GCTCGAAA,-0.0875 E-score

row,Sequence,binding signal
1,GTAGACAC,0.182 E-score
2,ATCCTACC,0.299 E-score
3,ATTCCGGC,-0.0584 E-score
4,CGTCCTAA,-0.0808 E-score
5,ACTACGCA,-0.205 E-score
6,GCTCGAAC,-0.254 E-score
7,AACTGATG,-0.147 E-score
8,GCTATGCC,-0.212 E-score
9,AAGACCCC,-0.0381 E-score
10,AGCGCTCG,-0.189 E-score
11,GCGGAACC,-0.0447 E-score
12,AGTACACA,0.0588 E-score
13,ACAAGAAG,-0.0225 E-score
14,AGCCCCTA,0.153 E-score
15,AACGCGTC,-0.231 E-score
16,GGTAGCAC,-0.0453 E-score
17,CCCTGAGA,0.116 E-score
18,CCCCCGGC,-0.0802 E-score
19,GTAAGAAC,-0.0503 E-score
